# Measured values from PMC4336329 (PLoS ONE, 2015).
# In all, about 310,000 compounds went through this assay and about 2,200 (0.71%) showed an effect of 50% or more. Effects have a minus sign here. Some of the results follow.
# Biological target: human ether-à-go-go-related gene (hERG) potassium channel (human, UniProt Q12809)
# Test: primary screen, population patch clamp on CHO cells stably expressing hERG
# Chain of human ether-à-go-go-related gene (hERG) potassium channel (Q12809 whole entry, looked up): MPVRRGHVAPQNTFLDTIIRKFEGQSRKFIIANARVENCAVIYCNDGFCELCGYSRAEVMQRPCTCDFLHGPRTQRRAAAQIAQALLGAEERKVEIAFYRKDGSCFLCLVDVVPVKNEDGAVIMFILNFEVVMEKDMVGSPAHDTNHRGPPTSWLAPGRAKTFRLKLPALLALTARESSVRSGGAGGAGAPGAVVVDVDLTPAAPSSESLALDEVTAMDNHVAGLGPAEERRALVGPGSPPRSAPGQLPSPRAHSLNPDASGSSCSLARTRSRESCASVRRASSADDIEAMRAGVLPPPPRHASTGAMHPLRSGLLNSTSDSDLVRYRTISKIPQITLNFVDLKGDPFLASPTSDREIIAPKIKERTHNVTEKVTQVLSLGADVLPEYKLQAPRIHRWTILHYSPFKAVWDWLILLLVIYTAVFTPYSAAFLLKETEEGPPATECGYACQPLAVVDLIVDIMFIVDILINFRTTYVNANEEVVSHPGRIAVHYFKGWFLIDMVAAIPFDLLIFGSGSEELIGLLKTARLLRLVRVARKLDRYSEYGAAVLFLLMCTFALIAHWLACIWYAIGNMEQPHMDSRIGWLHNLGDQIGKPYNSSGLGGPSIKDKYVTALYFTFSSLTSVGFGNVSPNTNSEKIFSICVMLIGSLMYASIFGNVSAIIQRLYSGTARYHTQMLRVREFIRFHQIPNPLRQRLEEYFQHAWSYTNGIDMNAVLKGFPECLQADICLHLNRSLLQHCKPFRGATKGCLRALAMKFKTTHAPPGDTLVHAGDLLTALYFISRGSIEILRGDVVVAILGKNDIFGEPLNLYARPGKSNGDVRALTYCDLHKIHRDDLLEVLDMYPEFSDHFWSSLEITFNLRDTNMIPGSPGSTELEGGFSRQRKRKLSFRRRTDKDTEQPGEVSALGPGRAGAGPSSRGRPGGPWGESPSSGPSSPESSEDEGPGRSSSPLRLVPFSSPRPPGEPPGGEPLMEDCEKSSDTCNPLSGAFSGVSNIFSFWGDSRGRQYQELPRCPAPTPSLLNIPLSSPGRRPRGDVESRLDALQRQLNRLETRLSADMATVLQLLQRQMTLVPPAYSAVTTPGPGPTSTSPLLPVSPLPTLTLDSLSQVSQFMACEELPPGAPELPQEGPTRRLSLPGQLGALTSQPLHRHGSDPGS
row,SMILES,"hERG current change (%, negative = inhibition) at 1uM [%]"
1,Cc1oc(-c2ccccc2Cl)nc1CN1CCCN(C(=O)c2ccco2)CC1,-21.4
2,CCCCN1CC(COc2ccccc2)OC1=O (centres unmarked),-6.39
3,Cc1cccc(C)c1NC(=O)C1(N(Cc2ccco2)C(=O)CC2NC(=O)NC2=O)CCCCC1 (centres unmarked),6.02
4,O=C(Nc1cccc(-c2nnc(-c3ccccc3)o2)c1)c1ccco1,6.9
5,COc1ccc(OC)c(NC(=O)c2nc(-c3ccccc3)oc2C)c1,13.1
6,O=C(Nc1ccc(S(=O)(=O)Nc2ncccn2)cc1)C12CC3CC(CC(C3)C1)C2,14.5
7,Nc1cc2nsnc2cc1Br,11
8,CC(C)NC(=O)CC1C(=O)NCCN1CC(c1ccccc1)c1ccccc1 (centres unmarked),2.97
9,O=C(NC1(C(=O)NC2CCCC2)CCCCC1)c1ccc2c(c1)OCO2,4.98
10,Cc1ccc(C(=O)CCC(=O)OCC(=O)Nc2ccccc2SCC#N)cc1,2.91
11,Cc1ccc(N2CCCn3c2cc(C)c(C#N)c3=O)cc1Cl,-1.52
12,C=CCn1c(SCC(=O)NCCO)nc2sc(C)c(C)c2c1=O,17.5
13,CC(C)(/C=N/O)N(O)C=C1C=CC(=O)C=C1,11.7
14,CCOc1cc(CNCCO)c(Cl)cc1OCC(=O)NCCc1ccccc1,9.54
15,CC(=O)Nc1ccc(NS(=O)(=O)c2ccc3[nH]c(=O)[nH]c3c2)cc1,1.67
16,COc1ccccc1/C=C/C(=O)NCC(=O)n1nc(C)cc1C,14.5
17,CCOC(=O)C1=C(CN2CCc3ccccc32)NC(=O)NC1c1ccc(Cl)cc1 (centres unmarked),-2.45
18,CCCCn1c(N)c(N(CC)C(=O)c2cccc(OCc3ccccc3)c2)c(=O)[nH]c1=O,-0.527
19,O=c1ccccn1CCOc1ccc(Cl)cc1,9.72
20,COc1ccc(C)cc1NC(=O)CCNS(=O)(=O)c1ccc2c(c1)CC(C)N2C(C)=O (centres unmarked),5.43
21,O=C(O)c1csc(-c2cccs2)n1,16.8
22,CC(=O)C1=C(O)C(=O)N(CCCn2ccnc2)C1c1ccc(Br)cc1 (centres unmarked),5.3

row,SMILES,"hERG current change (%, negative = inhibition) at 1uM [%]"
1,CN(C(=O)CSc1nnc2ccccn12)c1c(N)n(Cc2ccccc2)c(=O)[nH]c1=O,9.44
2,Cc1cc(C)c(NC(=O)CNC(=O)COC(=O)Cc2ccccc2C)c(C)c1,4.73
3,O=C(NC1CCCCC1)c1ccc(-c2ccc(Cl)cc2)o1,18.1
4,NS(=O)(=O)c1ccc(CCNC(=O)C2CCN(S(=O)(=O)c3c(Cl)cccc3Cl)CC2)cc1,5.85
5,COc1cc(/C=C2\SC(=O)N(CC(=O)Nc3ccc(C)cc3)C2=O)cc(Cl)c1OCC(=O)O,12.5
6,O=C(CNC(=O)c1ccccc1)OC(C(=O)c1ccccc1)c1ccccc1 (centres unmarked),6.32
7,N=C1SC(CC(=O)Nc2ccc([N+](=O)[O-])cc2)C(=O)N1c1ccccc1 (centres unmarked),12.1
8,CCOC(=O)CNC(=O)CSc1nc(-c2ccccc2)ns1,13.6
9,COC(=O)C1=C(C)N(Cc2ccccc2)C(=O)N[C@H]1c1cccc(F)c1,10.8
10,Cc1cccc(NC(=O)CN2C(=O)COc3ccc(Cl)cc32)c1C,10.5
11,S=C(NCC1CCCO1)Nc1ccc(Nc2ccccc2)cc1 (centres unmarked),3.43
12,CCOC(=O)CCNC(C)C1COc2ccccc2O1.O=C(O)C(=O)O (centres unmarked),10.3
13,CN1C(=O)c2ccccc2C(C(=O)NCCCN2CCCC2)C1c1c[nH]c2ccccc12 (centres unmarked),4.8
14,COc1ccc(CNC(C)C(=O)Nc2ccc3ccccc3c2)cc1OC (centres unmarked),6.19
15,O=C(CCC(=O)OCC(=O)c1cccc([N+](=O)[O-])c1)NC1CCCCC1,0.754
16,Cc1nn(-c2ccccc2)c(C)c1/C=N/NC(=O)c1ccccc1NS(=O)(=O)c1cccs1,16.4
17,O=C(CN1C(=O)c2cccnc2Oc2ccc(Cl)cc21)NC1CCCCCC1,11
18,COC(=O)c1ccc(COc2ccc(Cl)cc2)o1,4.33
19,COc1ccc(-c2oc3ccccc3c2C#Cc2cncn2C)cc1,20.5
20,CCCc1ccc2oc(C(=O)N(C)CCn3ccnc3C)c(C)c2c1,-28.8
21,Cc1ccccc1NC(=O)C1(C)Cc2ccccc2C(=O)O1 (centres unmarked),3.46
22,Cc1ccc(C(=O)NCC(=O)OCN2C(=O)c3ccccc3C2=O)cc1C,10.3
